Results reported in patent US6001810A, “Methods for treating retroviral infection” (Eli Lilly and Company, priority 1990, dated 1999).
Not every detail of the peptide structures is certain; ends, links or a residue may be inferred. Starred links: 1 amine or outer side, 2 acyl side, 3 side chain; linkers in the order of their positions; H or OH if unused. Non-standard residues stand in square brackets, D forms with d. Residues, ends and D or L forms follow the SMILES beside them. Ahppa(3S,4S) = O=C(C[C@H](O)[C@H](Cc1ccccc1)N[*:1])[*:2]; ACHPA = O=C(C[C@H](O)[C@H](CC1CCCCC1)N[*:1])[*:2]; Phe(4-NH2) = Nc1ccc(C[C@H](N)C(=O)O)cc1; 1Nal = N[C@@H](Cc1cccc2ccccc12)C(=O)O; Sta = CC(C)C[C@H](N)[C@@H](O)CC(=O)O

Target: T1, HIV-1 protease (Human immunodeficiency virus type 1 group M subtype B, UniProt P04585)
T1 construct: a gene encoding the mature HIV-1 protease of 99 amino acids; last 58 codons of bovine growth hormone, fused behind the first 144 amino acids of reverse transcriptase in the expressed precursor (C); made in house; host or cells: Escherichia coli K12 L507/pHP10D (NRRL B-18560), crude lysate
Assay: HIV-1 protease inhibition assay (gag precursor maturation, Western blot)
Format: biochemical
Conditions: for Relative Inhibition of HIV-1 Protease Activity (10^-4 M): peptide concentration added 10^-4 M; for Relative Inhibition of HIV-1 Protease Activity (10^-5 M): peptide concentration added 10^-5 M; for Relative Inhibition of HIV-1 Protease Activity (10^-6 M): peptide concentration added 10^-6 M; for Potency as protease inhibitor relative to P-7: compared with P-7; for Potency as protease inhibitor relative to the P-9 peptide: compared with P-9
Description: A 100 μl control reaction was established containing 10 to 20 μl of crude protease, about 2 μl of the gag supernatant and final concentrations of 50 mM MES Buffer (pH 5.5), 1 mM DTT and 25 mM NaCl. Inhibition assays were performed by pre-incubating the crude protease with an inhibitory compound at room temperature for about 30 minutes before adding the gag supernatant to the reaction. Both the control and the experimental reactions were incubated from three to sixteen hours at 37° C. The reactions were then electrophoresed and blotted onto nitrocellulose filters. Monoclonal antibodies which recognize epitopes on p24 and p17 viral proteins were contacted with the filter then visualized using standard biotinylation or radionuclear techniques. Compounds which prevented the maturation of the gag polypeptide into mature viral proteins p24 and p17 were then ranked according to their HIV-1 protease inhibitory activity.
About 10 to 20 μl of the crude protease lysate was mixed with about 2 μl of the gag supernatant. The mixture was then brought to a total volume of 100 μl by the addition of distilled water, MES buffer (2-[N-Morpholino]ethanesulfonic acid) (pH 5.5 to a total concentration of 50 mM), DTT (dithiolthreitol) (to a total concentration of 1 mM) and NaCl (to a total concentration of 25 mM). This reaction mixture was mixed gently then incubated from 3 hours to overnight at 37° C.
Next, about 25 μl of the reaction was mixed with loading buffer and subjected to polyacrylamide gel electrophoresis on a 12.5% Laemmli gel under reducing conditions. The proteins were transferred onto a nitrocellulose filter using standard "Western Blot" electrophoresis at 500 mAmps for 35 minutes at room temperature. The filter was air-dried, then non-specific immunoreaction was blocked by washing the filter for 30 minutes at 4° C. in a solution of 3% non-fat dry milk powder in phosphate buffered saline (PBS).
Monoclonal antibodies against p17 and/or p24 (available from DuPont, Wilmington, Del.) were added to about 40 ml of the 3% milk/PBS solution to a final concentration of 2 μg/ml. The nitrocellulose filter was added to the antisera solution and slowly rocked for 2 hours at 4° C. The filter then was removed and washed 5 times with PBS, then the maturation of the gag gene was determined by reaction with I^125 -labeled protein A or by reaction with biotinylated anti-mouse IgG antibodies (Vecta Stain®).
To run the I^125 -labeled protein A reaction, about 10 μCi of I^125 -labeled protein A was added to 100 ml of the 3% milk/PBS solution. The filter was rocked in this solution for 2 hours at 4° C., washed three times with PBS, then two times with PBS and 0.1% Tween 20. The filter was then air-dried and exposed to x-ray film for autoradiography.
The Vecta Stain® (Vector Laboratories, Burlingome, Calif.) procedure was performed according to the manufacturer's recommendations. Four drops of the biotinylated IgG was added to 40 mls of the 3% Milk/PBS solution, then the filter was rocked in this solution for 60 minutes at 4° C. The filter was washed five times with PBS, then rocked for 30 to 60 minutes at 4° C. in Reagent ABC. Reagent ABC was prepared by adding 4 drops of Reagent A (Avidin DH) and 4 drops of Reagent B (biotinylated peroxidase) to 20 ml of 3% Milk/PBS. The filter was then washed five times with PBS, then the filter was developed by washing it for 5 to 10 minutes in 10 ml of PBS containing 0.02% H2 O2 and 10 ml of 4-chloro-1 naphthol. When the color was fully developed, the filter was washed with distilled water and air-dried.
Following the procedure, it is simple to determine the activity of the HIV-1 protease encoded on plasmid pHP10D and produced in E. coli cells. When the protease is fully active, the gag protein, encoded by plasmid pHGAG and produced in E. coli, is cleaved from the precursor gag form into mature p24 and p17 proteins, which are readily measured by their presence relative to the precursor protein. […]

Row | Compound | Relative Inhibition of HIV-1 Protease Activity (10^-4 M) | Relative Inhibition of HIV-1 Protease Activity (10^-5 M) | Relative Inhibition of HIV-1 Protease Activity (10^-6 M) | Potency as protease inhibitor relative to P-7 | Potency as protease inhibitor relative to the P-9 peptide
1 | CC[C@H](C)[C@H](NC(=O)C[C@H](O)[C@H](CC1CCCCC1)NC(=O)[C@H](Cc1c[nH]cn1)NC(=O)[C@H](Cc1ccccc1)NC(=O)[C@@H]1CCCN1C(=O)[C@H](Cc1c[nH]cn1)NC(C)=O)C(=O)N[C@@H](Cc1ccccc1)C(N)=O [P-18, Ac His Pro Phe His ACHPA Ile Phe NH2] (Ac-HPFH[ACHPA]IF-NH2) | - | - | - |  | 
2 | CC[C@H](C)[C@H](NC(=O)C[C@H](O)[C@H](CC(C)C)NC(=O)[C@H](Cc1c[nH]cn1)NC(=O)[C@H](Cc1ccccc1)NC(=O)[C@@H]1CCCN1C(=O)[C@H](Cc1c[nH]cn1)NC(=O)[C@@H]1CCCN1)C(=O)N[C@@H](Cc1c[nH]cn1)C(N)=O [P-19, H-Pro His Pro Phe His Statine Ile His NH2] (H-PHPFH[Sta]IH-NH2) | - | - | - |  | 
3 | CC(=O)N[C@@H](Cc1c[nH]cn1)C(=O)N1CCC[C@H]1C(=O)N[C@@H](Cc1ccccc1)C(=O)N[C@H](C(=O)N[C@@H](CC(C)C)[C@@H](O)CC(=O)N[C@@H](CC(C)C)C(=O)N[C@@H](Cc1ccccc1)C(=O)N[C@@H](CC(C)C)C(N)=O)C(C)C [P-20, Ac His Pro Phe Val Statine Leu Phe Leu NH2] (Ac-HPFV[Sta]LFL-NH2) | - | - | - |  | 
4 | CC(=O)N[C@@H](Cc1c[nH]cn1)C(=O)N1CCC[C@H]1C(=O)N[C@@H](Cc1ccccc1)C(=O)N[C@H](C(=O)N[C@@H](CC(C)C)[C@@H](O)CC(=O)N[C@@H](CC(C)C)C(=O)N[C@@H](Cc1ccccc1)C(=O)N[C@@H](Cc1ccccc1)C(N)=O)C(C)C [P-21, Ac His Pro Phe Val Statine Leu Phe Phe NH2] (Ac-HPFV[Sta]LFF-NH2) | 4+ | 2+ | 1+ |  | 
5 | CC(=O)N[C@@H](Cc1c[nH]cn1)C(=O)N1CCC[C@H]1C(=O)N[C@@H](Cc1ccccc1)C(=O)N[C@H](C(=O)N[C@@H](CC(C)C)[C@@H](O)CC(=O)N[C@@H](CC(C)C)C(=O)N[C@@H](CC(C)C)C(=O)N[C@@H](Cc1ccccc1)C(N)=O)C(C)C [P-22, Ac His Pro Phe Val Statine Leu Leu Phe NH2] (Ac-HPFV[Sta]LLF-NH2) | 2+ | 1+ | - |  | 
6 | CC[C@H](C)[C@H](NC(=O)C[C@H](O)[C@H](CC(C)C)NC(=O)[C@H](Cc1c[nH]cn1)NC(=O)[C@H](Cc1ccccc1)NC(=O)[C@@H]1CCCN1C(=O)[C@H](Cc1c[nH]cn1)NC(=O)[C@@H]1CCCN1)C(=O)N[C@@H](Cc1ccccc1)C(N)=O [P-23, H-Pro His Pro Phe His Statine Ile Phe NH2] (H-PHPFH[Sta]IF-NH2) | - | - | - |  | 
7 | CC[C@H](C)[C@H](NC(=O)C[C@H](O)[C@H](Cc1ccccc1)NC(=O)[C@H](Cc1c[nH]cn1)NC(=O)[C@H](Cc1ccccc1)NC(=O)[C@@H]1CCCN1C(=O)[C@H](Cc1c[nH]cn1)NC(=O)[C@@H]1CCCN1)C(=O)N[C@@H](Cc1ccccc1)C(N)=O [P-24, H-Pro His Pro Phe His AHPPA Ile Phe NH2] (H-PHPFH[Ahppa(3S,4S)]IF-NH2) | 2+ | 1+ | - |  | 
8 | CC(=O)N[C@@H](Cc1ccc(N)cc1)C(=O)N1CCC[C@H]1C(=O)N[C@@H](Cc1ccccc1)C(=O)N[C@H](C(=O)N[C@@H](CC(C)C)[C@@H](O)CC(=O)N[C@@H](CC(C)C)C(=O)N[C@@H](Cc1ccccc1)C(N)=O)C(C)C [P-26, Ac paF Pro Phe Val Statine Leu Phe NH2] (Ac-[Phe(4-NH2)]PFV[Sta]LF-NH2) | 4+ | 4+ | 4+ | three to four times | 
9 | CC(=O)N[C@@H](Cc1cccc2ccccc12)C(=O)N[C@@H](CO)C(=O)N[C@@H](Cc1ccccc1)C(=O)N[C@H](C(=O)N[C@@H](CC(C)C)[C@@H](O)CC(=O)N[C@@H](CC(C)C)C(=O)N[C@@H](Cc1ccccc1)C(N)=O)C(C)C [P-27, Ac NA Ser Phe Val Statine Leu Phe NH2] (Ac-[1Nal]SFV[Sta]LF-NH2) | 4+ | 4+ | 3+ | without significantly affecting the potency | 
10 | COc1ccc(C[C@H](NC(=O)[C@H](Cc2ccc(O)cc2)NC(=O)CNC(C)=O)C(=O)N2CCC[C@H]2C(=O)N[C@@H](Cc2ccccc2)C(=O)N[C@H](C(=O)N[C@@H](CC(C)C)[C@@H](O)CC(=O)N[C@@H](CC(C)C)C(=O)N[C@@H](Cc2ccccc2)C(N)=O)C(C)C)cc1 [P-29, Ac Gly Tyr YOM Pro Phe Val Statine Leu Phe NH2] (Ac-GYY(Me)PFV[Sta]LF-NH2) | 4+ | 4+ |  |  | three times more potent
11 | COc1ccc(C[C@H](NC(C)=O)C(=O)N2CCC[C@H]2C(=O)N[C@@H](Cc2ccccc2)C(=O)N[C@H](C(=O)N[C@@H](CC(C)C)[C@@H](O)CC(=O)N[C@@H](CC(C)C)C(=O)N[C@@H](Cc2ccccc2)C(=O)N[C@@H](Cc2ccc(O)cc2)C(=O)N[C@@H](CC(C)C)C(N)=O)C(C)C)cc1 [P-30, Ac YOM Pro Phe Val Statine Leu Phe Tyr Leu NH2] (Ac-Y(Me)PFV[Sta]LFYL-NH2) | 4+ | 4+ |  |  | about 1.5 times
12 | CC(=O)N[C@@H](Cc1ccccc1)C(=O)N[C@H](C(=O)N[C@@H](CC(C)C)[C@@H](O)CC(=O)N[C@@H](CC(C)C)C(=O)N[C@@H](Cc1ccccc1)C(N)=O)C(C)C [P-31, Ac Phe Val Statine Leu Phe NH2] (Ac-FV[Sta]LF-NH2) | 4+ | 4+ |  | as potent as | as potent as
